Assay results from patent US12570764B2, “Anti-MUC16 antibodies, antibody-drug conjugates, and bispecific antigen-binding molecules that bind MUC16 and CD3, and uses thereof” (Regeneron Pharmaceuticals, Inc., priority 2016, dated 2026).

Experiments:
[1] = system: OVCAR-3/Luc; assay: OVCAR-3/Luc xenograft in PBMC-engrafted NSG mice, therapeutic treatment; assay type: in vivo; details: 10 μg/mouse i.p. 7 d post tumor implantation
Description: To assess the in vivo efficacy of the anti-MUC16/anti-CD3 bispecifics in human tumor xenograft studies, NOD scid gamma (NSG) mice (Jackson Laboratories, Bar Harbor, Me.) were pre-implanted with human peripheral blood mononuclear cells (PBMCs; ReachBio LLC., Seattle, Wash.) and then given ascites cells from the human ovarian cancer cell line OVCAR-3 (American Type Tissue Culture, Manassas, Va.) transduced with luciferase (OVCAR-3/Luc). OVCAR-3 cells endogenously express MUC-16.
Briefly, NSG mice were injected intraperitoneally (i.p.) with 5.0×10^6 human PBMCs. 8 d later, 1.5×10^6 ascites cells from the OVCAR-3/Luc cell line, previously passaged in vivo, were administered i.p. to the NSG mice engrafted with PBMCs. In the immediate treatment group, mice were treated i.p. on the day of OVCAR-3/Luc cell implantation with MUC16/CD3 Bispecific antibodies BSMUC16/CD3-001 or BSMUC16/CD3-005, or an isotype control, at a dose of 10 μg/mouse (N=5 mice/treatment group). In the therapeutic dose model, mice were treated i.p. 7 d post tumor implantation with the MUC16/CD3 Bispecific or control antibodies described above, at a dose of 10 μg/mouse (N=5/treatment group).
In all studies, tumor growth was monitored via bioluminescent imaging (BLI). […] Regions of interest were drawn around each cell mass and photon intensities were recorded as photons (p)/sec (s)/cm^2/steradian (sr). […]

[2] = system: OVCAR-3/Luc; assay: OVCAR-3 model study 1 (xenogenic, NSG mice engrafted with human PBMCs); assay type: in vivo, mouse; details: for Avg Radiance 6 days post-implantation (median ± SEM): baseline, before dosing started
Description: In further experiments, the in vivo efficacy of an anti-MUC16/anti-CD3 bispecific antibody was evaluated in xenogenic and syngeneic tumor models. For the first xenogenic model, NSG mice were injected intraperitoneally (IP) with OVCAR-3/Luc cells previously passaged in vivo (Day 0) eleven days after engraftment with human PBMCs. Mice were treated IP with 0.01, 0.1, or 0.5 mg/kg BSMUC16/CD3-001, or administered 0.5 mg/kg non-binding control or CD3-binding control on Days 6, 10, 13, 16, and 21. Tumor burden was assessed by BLI on Days 6, 14, and 20 post tumor implantation. […] For the second xenogenic model, NSG mice were injected with OVCAR-3/Luc cells previously passaged in vivo (Day 0) thirteen days after engraftment with human PBMCs and a second batch of PBMCs were transferred on Day 4. Mice were treated intravenously (IV) with 0.1, 0.5, 1, or 5 mg/kg BSMUC16/CD3-005 or administered 5 mg/kg non-binding control or CD3-binding control on Days 5, 8, 12, 15, 19 and 22. Tumor burden was assessed by BLI on Days 4, 11, 18 and 25. […] To examine efficacy in an immune-competent model, the murine CD3 gene was replaced with human CD3 and a portion of the mouse MUC16 gene was replaced with the human sequence. […] For the syngeneic tumor model, ID8-VEGF cell lines engineered to express the portion of human MUC16 were used. Mice were implanted with the ID8-VEGF/huMUC16 cells subcutaneously and treated with 100 μg of BSMUC16/CD3-001 either on day of implantation or ten days after implantation when tumors were established.
Implantation and measurement of xenograft tumors: Ascites cells from the OVCAR-3/Luc cell line, previously passaged in vivo, were administered IP into the NSG mice previously engrafted with human PBMCs. BLI was measured as a read-out for tumor growth several days after OVCAR-3/Luc implantation and at multiple times during study. After initial BLI measurement for cohorting, mice were divided into groups of 4-6 animals each and administered MUC16×CD3 bispecific or control antibodies twice per week throughout the study.
Calculation of xenograft tumor growth and inhibition: Bioluminescence imaging was used to measure tumor burden. Mice were injected IP with 150 mg/kg (as determined by body weights at the start of the experiment) of the luciferase substrate D-luciferin suspended in PBS. Ten minutes after dosing, BLI imaging of the mice was performed under isoflurane anesthesia using the Xenogen IVIS system. […] Regions of interest were drawn around each tumor mass and photon intensities were recorded as p/s/cm^2/sr. […] Statistical significance for the BLI results was determined using an unpaired nonparametric Mann-Whitney t-test. Fold changes were calculated by the formula: (Day20-Day6)/Day6 for study 1 and (Day25−Day4)/Day4 for study 2.

[3] = Pharmacokinetics in CD3 humanized mice (CD3^hu/hu); assay type: in vivo, mouse
[4] = system: mouse MUC16; assay: Binding to mouse MUC16 (statement only)
[5] = molecular target: mouse CD3 (Mus musculus, UniProt P04235+P22646); assay: Binding to mouse CD3 (statement only)
mouse CD3, sequence (P22646 22-189): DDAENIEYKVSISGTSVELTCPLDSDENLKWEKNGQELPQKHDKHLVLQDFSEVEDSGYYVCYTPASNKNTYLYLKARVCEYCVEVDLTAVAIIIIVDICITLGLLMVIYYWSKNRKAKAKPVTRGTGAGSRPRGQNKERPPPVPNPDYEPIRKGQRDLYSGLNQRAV
mouse CD3, sequence (P04235 22-173): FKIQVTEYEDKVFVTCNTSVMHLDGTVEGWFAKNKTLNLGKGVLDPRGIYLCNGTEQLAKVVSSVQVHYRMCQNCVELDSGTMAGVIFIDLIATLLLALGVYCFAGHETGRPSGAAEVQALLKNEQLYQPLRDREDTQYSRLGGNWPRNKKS

[6] = molecular target: T1, soluble monomeric human MUC16 (hMUC16.mmh, last five SEA domains) (Homo sapiens, UniProt Q8WXI7); assay: Surface plasmon resonance (Biacore) binding to hMUC16 fragment at 25° C.
T1 construct: C-terminal tags (.mmh)
T1 sequence (Q8WXI7 with tags, fused parts or gaps): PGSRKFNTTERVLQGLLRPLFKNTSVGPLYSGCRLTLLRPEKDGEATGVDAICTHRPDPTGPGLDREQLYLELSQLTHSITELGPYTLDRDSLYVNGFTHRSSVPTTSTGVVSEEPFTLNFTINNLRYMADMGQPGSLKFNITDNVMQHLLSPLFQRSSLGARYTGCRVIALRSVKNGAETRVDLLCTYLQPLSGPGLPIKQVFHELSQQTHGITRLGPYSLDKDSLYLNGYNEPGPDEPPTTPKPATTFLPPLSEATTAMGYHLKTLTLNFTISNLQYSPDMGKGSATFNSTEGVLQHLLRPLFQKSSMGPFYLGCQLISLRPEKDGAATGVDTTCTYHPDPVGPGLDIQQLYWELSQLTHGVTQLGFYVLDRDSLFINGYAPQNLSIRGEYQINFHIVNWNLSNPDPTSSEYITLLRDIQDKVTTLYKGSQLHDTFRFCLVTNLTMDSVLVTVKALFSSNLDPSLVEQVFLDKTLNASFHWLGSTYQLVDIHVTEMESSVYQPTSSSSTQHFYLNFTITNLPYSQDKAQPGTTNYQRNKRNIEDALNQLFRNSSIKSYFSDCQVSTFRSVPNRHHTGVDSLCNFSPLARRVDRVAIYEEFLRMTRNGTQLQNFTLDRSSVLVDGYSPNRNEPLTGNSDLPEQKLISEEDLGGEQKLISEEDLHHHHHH

[7] = Pharmacokinetics in wild-type (WT) mice; assay type: in vivo, mouse; details: single 0.4 mg/kg i.p.
[8] = molecular target: T2, PC3/MUC16 short (nub portion of MUC16, amino acids 13,810-14,507) (Homo sapiens, UniProt Q8WXI7); assay: IHC staining of FFPE cell pellets: PC3/MUC16 short; assay type: binding
T2 construct: expressed in transfected cells; host or cells: PC3/ATCC (parental prostate cancer line, MUC16-negative)
T2 sequence (Q8WXI7 13810-14507 limits assumed): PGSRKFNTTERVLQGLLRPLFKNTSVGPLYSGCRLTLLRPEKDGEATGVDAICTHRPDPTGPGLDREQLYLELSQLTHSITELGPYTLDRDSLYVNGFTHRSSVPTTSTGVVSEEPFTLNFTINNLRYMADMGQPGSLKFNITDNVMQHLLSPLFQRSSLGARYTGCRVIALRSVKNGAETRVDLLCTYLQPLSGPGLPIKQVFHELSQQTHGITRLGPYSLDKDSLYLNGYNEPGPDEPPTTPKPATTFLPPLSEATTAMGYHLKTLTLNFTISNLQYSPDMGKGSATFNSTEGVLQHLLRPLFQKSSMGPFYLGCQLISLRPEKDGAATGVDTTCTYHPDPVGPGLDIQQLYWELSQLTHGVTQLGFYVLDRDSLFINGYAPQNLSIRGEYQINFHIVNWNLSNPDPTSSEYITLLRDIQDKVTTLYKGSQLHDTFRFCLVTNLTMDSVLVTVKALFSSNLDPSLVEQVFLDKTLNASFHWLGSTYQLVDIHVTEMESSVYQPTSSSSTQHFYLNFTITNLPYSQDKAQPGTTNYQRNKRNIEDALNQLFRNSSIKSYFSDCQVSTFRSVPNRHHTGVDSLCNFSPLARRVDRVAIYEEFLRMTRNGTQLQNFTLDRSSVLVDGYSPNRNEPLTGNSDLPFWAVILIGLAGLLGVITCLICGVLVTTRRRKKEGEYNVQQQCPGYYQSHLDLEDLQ

[9] = molecular target: T3, Cynomolgus T cells (CD3) (Macaca fascicularis, UniProt Q95LI5+Q95LI8); assay: FACS binding titration on cynomolgus T cells; details: Table 7B experiment (66.6 nM to 0.001 nM)
T3 construct: endogenous in cells; host or cells: primary cynomolgus T cells
T3 sequence (Q95LI5 22-198): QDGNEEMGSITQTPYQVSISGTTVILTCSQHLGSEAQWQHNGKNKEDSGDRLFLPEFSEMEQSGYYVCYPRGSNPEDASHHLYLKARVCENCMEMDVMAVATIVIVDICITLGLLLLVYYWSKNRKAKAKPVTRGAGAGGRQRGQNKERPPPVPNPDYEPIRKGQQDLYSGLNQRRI
T3 sequence (Q95LI8 22-171): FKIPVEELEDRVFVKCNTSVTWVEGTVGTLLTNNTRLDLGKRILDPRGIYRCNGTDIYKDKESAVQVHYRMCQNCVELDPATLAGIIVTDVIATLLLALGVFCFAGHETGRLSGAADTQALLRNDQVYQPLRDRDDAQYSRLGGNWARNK
T3 sequence (Q95LI7 23-181 partner): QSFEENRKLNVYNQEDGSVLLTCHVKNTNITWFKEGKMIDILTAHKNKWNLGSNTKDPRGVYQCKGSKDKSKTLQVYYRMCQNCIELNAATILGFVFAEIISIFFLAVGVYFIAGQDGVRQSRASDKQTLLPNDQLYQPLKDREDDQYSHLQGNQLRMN
Description: B. In separate experiments with analogous conditions to that described above, flow cytometric analysis (or FACS) was utilized to determine binding of select bispecific antibodies to Jurkat cells, PEO-1, OVCAR3-Luc and cynomolgus T cells. For the titration analysis, serial dilution of selected MUC16×CD3 bispecific antibodies, a first isotype control antibody (a human chimeric IgG4 antibody that binds an irrelevant human antigen with no cross-reactivity to human or cynomolgus CD3) and a second isotype control antibody (a human chimeric IgG4 antibody that binds an irrelevant human antigen with no cross-reactivity to human MUC16), ranging from 66.6 nM to 0.001 nM.
For FACS analysis, cells were gated by forward scatter height vs. forward scatter area for single events selection, followed by side and forward scatters. The EC50 for cell binding titration was determined using PRISM™ software (GraphPad Software, Inc., La Jolla, Calif.). Values were calculated using 4-parameter non-linear regression analysis. (Liu, J., et al. 2005, Biotechnol Letters 27:1821-1827).

[10] = Table 6, anti-MUC16/anti-CD3 bispecific antibodies
[11] = Table 5A, hybridoma antibodies (H1M, H2M, H3M)

B1: BSMUC16/CD3-001: anti-MUC16 x CD3 bispecific antibody, IgG1 Fc; H1H8767P arm, CD3-VH-G arm (SEQ ID NO: 1730), common light chain SEQ ID NO: 26 (antibody, V domains shown)
VH 1: QVQLVESGGGLVKPGGSLRLSCAASGFTFSNYYMSWVRQAPGKGLEWISYISGRGSTIFYADSVKGRITISRDNAKNSLFLQMNSLRAEDTAVYFCVKDRGGYSPYWGQGTLVTVSS
VH 2: EVQLVESGGGLVQPGRSLRLSCAASGFTFDDYSMHWVRQAPGKGLEWVSGISWNSGSKGYADSVKGRFTISRDNAKNSLYLQMNSLRAEDTALYYCAKYGSGYGKFYHYGLDVWGQGTTVTVSS
VL: [… about 100 residues …]PITFGQGTRLEIK
Fold change in Avg Bioluminescent Radiance at Day 26 relative to Day 6 (mean ± SD) [1]: 2.0 ± 5.0
Avg Radiance 20 days post-implantation (median ± SEM) ([2]; 0.01 mg/kg IP on Days 6, 10, 13, 16 and 21): 6.51e+06 ± 1.60e+06 p/s/cm2^2/sr
Avg Radiance 6 days post-implantation (median ± SEM) ([2]; group 0.01 mg/kg IP): 8.77e+05 ± 7.91e+04 p/s/cm2^2/sr
Avg Radiance 6 days post-implantation (median ± SEM) ([2]; group 0.1 mg/kg IP): 6.31e+05 ± 1.10e+05 p/s/cm2^2/sr
Avg Radiance 6 days post-implantation (median ± SEM) ([2]; group 0.5 mg/kg IP): 7.64e+05 ± 1.19e+05 p/s/cm2^2/sr
Drug elimination curve ([3]; compared with BSMUC16/CD3-005 and isotype control): steeper drug elimination
Terminal antibody concentration ([3]; single 0.4 mg/kg i.p., serum): 0.03 µg/mL
Binding to mouse MUC16 [4]: Neither BSMUC16/CD3-001 or BSMUC16/CD3-005 bind
Binding to mouse CD3 [5]: Neither BSMUC16/CD3-001 or BSMUC16/CD3-005 bind
ka [6, 10]: 94800 M⁻¹ s⁻¹
kd [6, 10]: 0.000586 s⁻¹
Cmax (Peak concentration) [7]: 6 ± 0.4 µg/mL

B2: H2M7138N: hybridoma anti-MUC16 antibody, mIgG2; HCVR/LCVR SEQ ID NOs: 314/322 (antibody, V domains shown)
VH: QVQLVQSGAEVKKPGASVKVSCKASGYTFTSSDINWVRQATGQGLEWVGWMNPNYGYTGSARKFQDRVTMTRNTSLSTAYLELHSLRSEDTAVYYCARVTYCSSVTSCFRPFTYWGQGTLVTVSA
VL: [… about 100 residues …]PITFGQGTRLEIK
modifications: mIgG2
ka [6, 11]: 74100 M⁻¹ s⁻¹
kd [6, 11]: 9.25e-05 s⁻¹
IHC binding to cells expressing the nub portion of MUC16 without the repeat regions (PC3/MUC16 short) [8]: positive binding

B3: BSMUC16/CD3-002: anti-MUC16 x CD3 bispecific antibody, IgG1 Fc; H1H8767P arm, CD3-VH-G5 arm (SEQ ID NO: 1762) (antibody, V domains shown)
VH 1: B1 VH 1
VH 2: B1 VH 2 with K58I, Y99D, H108Y, L111M
VL: [… about 100 residues …]PITFGQGTRLEIK
EC50 [9]: > 1000 nM

Substitutions are numbered along the chain they refer to.
